T1: human CTLA4 protein (Acro, CT4-H52H9) (human, UniProt P16410 36-161)
T1 construct: coated on the ELISA plate; also called human CTLA4 antigen
T1 sequence (looked up): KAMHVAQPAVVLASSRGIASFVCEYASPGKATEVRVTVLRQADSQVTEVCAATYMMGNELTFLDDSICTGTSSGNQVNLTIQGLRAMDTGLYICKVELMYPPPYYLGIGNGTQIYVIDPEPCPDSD

B1: functional antibody Abs-300 (Fc fusion)
chain: APLKIQAYFNETADLPCQFANSQNISLSELVVLWQDQENLVLNEVYLGKEKFDSVHSKYMGRTSFDSDSWTLRLHNLQIKDKGLYQCIIIHKKPTGMIRIHQMNSELSVLANFSQPEIVPISNITENVYINLTCSSIHGYPEPKKMSVLLRTKNSTIEYDGVMQKSQDNVTELYDVSISLSVSFPDVTSNMTIFCILETDKTRLLSSPFSIELEDPQPPPDHIP[left out - human IgG4 Fc]
notes: CD86 ECD Q25I/F33L/H90I - IgG4 Fc
B2: functional antibody Abs-301 (Fc fusion)
chain: APLKIQAYFNETADLPCQFANSQNVSLSELVVLWQDQENLVLNEVYLGKEKFDSVHSKYMGRTSFDSDSWTLRLHNLQIKDKGLYQCIIIHKKPTGMIRIHQMNSELSVLANFSQPEIVPISNITENVYINLTCSSIHGYPEPKKMSVLLRTKNSTIEYDGVMQKSQDNVTELYDVSISLSVSFPDVTSNMTIFCILETDKTRLLSSPFSIELEDPQPPPDHIP[left out - human IgG4 Fc]
notes: CD86 ECD Q25V/F33L/H90I - IgG4 Fc
B3: functional antibody Abs-333 (Fc fusion)
chain: APLKIQAYFNETADLPCQFANSQNQSLSELVVFWQDQENLVLNEVYLGKEKFDSVHSKYMGRTSFDSDSWTLRLHNLQIKDKGLYQCIIHHKKPTGMIRIHQMNSELSVLANFSQPEIVPISNITENVYINLTCSSIHGYPEPKKMSVLLRTKNSTIEYDGVMQKSQDNVTELYDVSISLSVSFPDVTSNMTIFCILETDKTRLLSSPFSIELEDPQPPPDHIP[left out - human IgG4 Fc]
notes: unmutated CD86 ECD - IgG4 Fc
B4: functional antibody Abs-367 (Fc fusion)
chain: APLKIQAYFNETADLPCQFANSQNQSLSELVVFWQDQENLVLNEVYLGKEKFDSVHSKYMGRTSFDSDSWTLRLHNLQIKDKGLYQCIIHHKKPTGMIRIHQMNSELSVL[left out - human IgG4 Fc]
notes: unmutated CD86 IgV - IgG4 Fc
B5: functional antibody Abs-334 (Fc fusion)
chain: APLKIQAYFNETADLPCQFANSQNISLSELVVLWQDQENLVLNEVYLGKEKFDSVHSKYMGRTSFDSDSWTLRLHNLQIKDKGLYQCIIIHKKPTGMIRIHQMNSELSVL[left out - human IgG4 Fc]
notes: CD86 IgV Q25I/F33L/H90I - IgG4 Fc
B6: functional antibody Abs-335 (Fc fusion)
chain: APLKIQAYFNETADLPCQFANSQNVSLSELVVLWQDQENLVLNEVYLGKEKFDSVHSKYMGRTSFDSDSWTLRLHNLQIKDKGLYQCIIIHKKPTGMIRIHQMNSELSVL[left out - human IgG4 Fc]
notes: CD86 IgV Q25V/F33L/H90I - IgG4 Fc
B7: functional antibody Abs-336 (Fc fusion)
chain: APLKIQAYFNETADLPCQFANSQNISLSELVVVWQDQENLVLNEVYLGKEKFDSVHSKYMGRTSFDSDSWTLRLHNLQIKDKGLYQCIIIHKKPTGMIRIHQMNSELSVL[left out - human IgG4 Fc]
notes: CD86 IgV Q25I/F33V/H90I - IgG4 Fc
B8: functional antibody Abs-337 (Fc fusion)
chain: APLKIQAYFNETADLPCQFANSQNVSLSELVVVWQDQENLVLNEVYLGKEKFDSVHSKYMGRTSFDSDSWTLRLHNLQIKDKGLYQCIIIHKKPTGMIRIHQMNSELSVL[left out - human IgG4 Fc]
notes: CD86 IgV Q25V/F33V/H90I - IgG4 Fc
B9: functional antibody Abs-338 (Fc fusion)
chain: APLKIQAYFNETADLPCQFANSQNISLSELVVLWQDQENLVLNEVYLGKEKFDSVHSKYMGRTSFDSDSWTLRLHNLQIKDKGLYQCIIVHKKPTGMIRIHQMNSELSVL[left out - human IgG4 Fc]
notes: CD86 IgV Q25I/F33L/H90V - IgG4 Fc
B10: functional antibody Abs-339 (Fc fusion)
chain: APLKIQAYFNETADLPCQFANSQNVSLSELVVLWQDQENLVLNEVYLGKEKFDSVHSKYMGRTSFDSDSWTLRLHNLQIKDKGLYQCIIVHKKPTGMIRIHQMNSELSVL[left out - human IgG4 Fc]
notes: CD86 IgV Q25V/F33L/H90V - IgG4 Fc
B11: functional antibody Abs-340 (Fc fusion)
chain: APLKIQAYFNETADLPCQFANSQNISLSELVVVWQDQENLVLNEVYLGKEKFDSVHSKYMGRTSFDSDSWTLRLHNLQIKDKGLYQCIIVHKKPTGMIRIHQMNSELSVL[left out - human IgG4 Fc]
notes: CD86 IgV Q25I/F33V/H90V - IgG4 Fc
B12: functional antibody Abs-341 (Fc fusion)
chain: APLKIQAYFNETADLPCQFANSQNVSLSELVVVWQDQENLVLNEVYLGKEKFDSVHSKYMGRTSFDSDSWTLRLHNLQIKDKGLYQCIIVHKKPTGMIRIHQMNSELSVL[left out - human IgG4 Fc]
notes: CD86 IgV Q25V/F33V/H90V - IgG4 Fc
B13: functional antibody Abs-342 (Fc fusion)
chain: APLKIQAYFNETLDLPCQFANSQNISLSELVVLWQDQENLVLNEVYLGKEKFDSVHSKYMGRTSFDSDSWTLRLHNLQIKDKGLYQCIIIHKKPTGMIRIHQMNSELSVL[left out - human IgG4 Fc]
notes: CD86 IgV A13L/Q25I/F33L/H90I - IgG4 Fc
B14: functional antibody Abs-343 (Fc fusion)
chain: APLKIQAYFNETIDLPCQFANSQNISLSELVVLWQDQENLVLNEVYLGKEKFDSVHSKYMGRTSFDSDSWTLRLHNLQIKDKGLYQCIIIHKKPTGMIRIHQMNSELSVL[left out - human IgG4 Fc]
notes: CD86 IgV A13I/Q25I/F33L/H90I - IgG4 Fc
B15: functional antibody Abs-344 (Fc fusion)
chain: APLKIQAYFNETLDLPCQFANSQNVSLSELVVLWQDQENLVLNEVYLGKEKFDSVHSKYMGRTSFDSDSWTLRLHNLQIKDKGLYQCIIIHKKPTGMIRIHQMNSELSVL[left out - human IgG4 Fc]
notes: CD86 IgV A13L/Q25V/F33L/H90I - IgG4 Fc
B16: functional antibody Abs-345 (Fc fusion)
chain: APLKIQAYFNETIDLPCQFANSQNVSLSELVVLWQDQENLVLNEVYLGKEKFDSVHSKYMGRTSFDSDSWTLRLHNLQIKDKGLYQCIIIHKKPTGMIRIHQMNSELSVL[left out - human IgG4 Fc]
notes: CD86 IgV A13I/Q25V/F33L/H90I - IgG4 Fc
B17: functional antibody Abs-346 (Fc fusion)
chain: APLKIQAYFNETADLPCQFANSQNISLSELVVLWQDQENLVLNEVYLGKEKFDSVHSKYMGRTSFDSDSWTLRLHNLQIKDKGLYQCILIHKKPTGMIRIHQMNSELSVL[left out - human IgG4 Fc]
notes: CD86 IgV Q25I/F33L/I89L/H90I - IgG4 Fc
B18: functional antibody Abs-347 (Fc fusion)
chain: APLKIQAYFNETADLPCQFANSQNISLSELVVLWQDQENLVLNEVYLGKEKFDSVHSKYRGRTSFDSDSWTLRLHNLQIKDKGLYQCIIIHKKPTGMIRIHQMNSELSVL[left out - human IgG4 Fc]
notes: CD86 IgV Q25I/F33L/M60R/H90I - IgG4 Fc
B19: functional antibody Abs-348 (Fc fusion)
chain: APLKIQAYFNETADLPCQFANSQNVSLSELVVLWQDQENLVLNEVYLGKEKFDSVHSKYMGRTSFDSDSWTLRLHNLQIKDKGLYQCILIHKKPTGMIRIHQMNSELSVL[left out - human IgG4 Fc]
notes: CD86 IgV Q25V/F33L/I89L/H90I - IgG4 Fc
B20: functional antibody Abs-349 (Fc fusion)
chain: APLKIQAYFNETADLPCQFANSQNVSLSELVVLWQDQENLVLNEVYLGKEKFDSVHSKYRGRTSFDSDSWTLRLHNLQIKDKGLYQCIIIHKKPTGMIRIHQMNSELSVL[left out - human IgG4 Fc]
notes: CD86 IgV Q25V/F33L/M60R/H90I - IgG4 Fc
B21: functional antibody Abs-350 (Fc fusion)
chain: APLKIQAYFNETADLPCQFANSQNFSLSELVVLWQDQENLVLNEVYLGKEKFDSVHSKYMGRTSFDSDSWTLRLHNLQIKDKGLYQCIIIHKKPTGMIRIHQMNSELSVL[left out - human IgG4 Fc]
notes: CD86 IgV Q25F/F33L/H90I - IgG4 Fc
B22: functional antibody Abs-351 (Fc fusion)
chain: APLKIQAYFNETADLPCQFANSQNISLSELVVLWQDQENLVLNEVYLGKEKFDSVHSKYMGRTSFDSDSWTLRLHNLQIKDKGLYQCIIFHKKPTGMIRIHQMNSELSVL[left out - human IgG4 Fc]
notes: CD86 IgV Q25I/F33L/H90F - IgG4 Fc
B23: functional antibody Abs-352 (Fc fusion)
chain: APLKIQAYFNETADLPCQFANSQNISLSELVVAWQDQENLVLNEVYLGKEKFDSVHSKYMGRTSFDSDSWTLRLHNLQIKDKGLYQCIIIHKKPTGMIRIHQMNSELSVL[left out - human IgG4 Fc]
notes: CD86 IgV Q25I/F33A/H90I - IgG4 Fc
B24: functional antibody Abs-353 (Fc fusion)
chain: APLKIQAYFNETADLPCQFANSQNISLSELVVFWQDQENLVLNEVYLGKEKFDSVHSKYMGRTSFDSDSWTLRLHNLQIKDKGLYQCIIIHKKPTGMIRIHQMNSELSVL[left out - human IgG4 Fc]
notes: CD86 IgV Q25I/H90I - IgG4 Fc
B25: functional antibody Abs-354 (Fc fusion)
chain: APLKIQAYFNETADLPCQFANSQNVSLSELVVFWQDQENLVLNEVYLGKEKFDSVHSKYMGRTSFDSDSWTLRLHNLQIKDKGLYQCIIVHKKPTGMIRIHQMNSELSVL[left out - human IgG4 Fc]
notes: CD86 IgV Q25V/H90V - IgG4 Fc
B26: functional antibody Abs-355 (Fc fusion)
chain: APLKIQAYFNETADLPCQFANSQNVSLSELVVFWQDQENLVLNEVYLGKEKFDSVHSKYMGRTSFDSDSWTLRLHNLQIKDKGLYQCIIIHKKPTGMIRIHQMNSELSVL[left out - human IgG4 Fc]
notes: CD86 IgV Q25V/H90I - IgG4 Fc
B27: functional antibody Abs-356 (Fc fusion)
chain: APLKIQAYFNETADLPCQFANSQNFSLSELVVFWQDQENLVLNEVYLGKEKFDSVHSKYMGRTSFDSDSWTLRLHNLQIKDKGLYQCIIIHKKPTGMIRIHQMNSELSVL[left out - human IgG4 Fc]
notes: CD86 IgV Q25F/H90I - IgG4 Fc

How the values were obtained:
[1] = target: T2, human CD28 protein (Acro, CD8-H525a) (human, UniProt P10747 19-152); assay: ELISA, coated human CD28
T2 construct: coated on the ELISA plate; also called human CD28 antigen
T2 sequence (P10747 19-152 limits assumed): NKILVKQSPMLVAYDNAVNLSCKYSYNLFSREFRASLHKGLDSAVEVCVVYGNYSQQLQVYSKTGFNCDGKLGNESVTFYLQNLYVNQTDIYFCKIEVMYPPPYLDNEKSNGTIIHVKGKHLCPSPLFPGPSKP

[2] = target: T1, human CTLA4 protein (Acro, CT4-H52H9); assay: ELISA, coated human CTLA4

Binder	EC50 [1]	EC50 [2]
B1	289 pM	79.3 pM
B2	489 pM	127 pM
B3	10000 pM	254 pM
B4	5980 pM	794 pM
B5	31.5 pM	521 pM
B6	89.7 pM	706 pM
B7	32.7 pM	602 pM
B8	53.1 pM	592 pM
B9	30.2 pM	430 pM
B10	2260 pM	1070 pM
B11	4400 pM	1890 pM
B12	43.2 pM	497 pM
B13	49.3 pM	514 pM
B14	24.2 pM	313 pM
B15	2400 pM	917 pM
B16	24.9 pM	347 pM
B17	41.8 pM	493 pM
B18	40.7 pM	410 pM
B19	31.8 pM	437 pM
B20	49.3 pM	328 pM
B21	39 pM	437 pM
B22	2970 pM	1100 pM
B23	10500 pM	5970 pM
B24	48.7 pM	297 pM
B25	33.1 pM	420 pM
B26	29.7 pM	312 pM
B27	64.7 pM	598 pM
